{
  "source": "the supplement of paper PMC11417369",
  "note": "± gives the standard deviation of the averaged measurements. This is one part of the list.",
  "data": [
    {"test_system": "PfAP2-I AP2 domain 3 (GST-tagged)", "assay": "gcPBM binding intensity (ln(normalized median fluorescence intensity)); higher = stronger DNA binding", "outline": "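GST-tagged P. falciparum DNA-binding domains, expressed in E. coli (about 25 μg on average), were applied for 1 h to an Agilent 4 × 180k array of primer-extended double-stranded 36-bp intergenic genomic probes plus negative controls. The binding buffer was 1× PBS with 1% milk, 0.2 mg/ml BSA, 0.5% salmon testes DNA and 0.03% Triton X-100. Bound protein was detected with Alexa488 anti-GST antibody and scanned at 488 nm. Binding intensity is the highest Masliner-normalised natural-log median intensity across replicate spots of either probe orientation.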", "values": [
      {"sequence": "TTTAATATGAATTTATGTACATATATATATATATAT [XGTACX_site6337]", "gcPBM binding intensity (ln)": "9.53 ± 0.54"},
      {"sequence": "TATATTAAAAAAAAATGTACATATATATAATATATA [XGTACX_site1935]", "gcPBM binding intensity (ln)": "7.72 ± 0.35"},
      {"sequence": "TTAAAGAATATTTTCACACATAAAAATTTTAATTTA [CACACA_site4290]", "gcPBM binding intensity (ln)": "7.32 ± 0.5"},
      {"sequence": "TTATAAAACACAAAATGTACAAAAAATTATAATTAA [XGTACX_site6859]", "gcPBM binding intensity (ln)": "7.91 ± 0.57"},
      {"sequence": "AATATTATTATCTTACCACACACAATCTACGAAAAG [CACACA_site8006]", "gcPBM binding intensity (ln)": "8.07 ± 0.28"},
      {"sequence": "TATGTCTTGTTGTAAAATATTTATTAACAAATTGGC [CACACA_negctrl_site1452]", "gcPBM binding intensity (ln)": "7.74 ± 0.39"},
      {"sequence": "TATATATATATAAGTGCACACTGAACCAAGAAAATT [CACACA_site5637]", "gcPBM binding intensity (ln)": "10.5 ± 0.16"},
      {"sequence": "TTTTTTTTTTTTTAAATAATCATACATGTGAAATTG [GTGCAC_negctrl_site328]", "gcPBM binding intensity (ln)": "7.96 ± 0.71"},
      {"sequence": "TTAATAAAAATATATCCACACACATATATATATATG [CACACA_site8091]", "gcPBM binding intensity (ln)": "7.8 ± 0.45"},
      {"sequence": "ATCATTTATTTTTTAAAAGTATATATATATATATAT [CACACA_negctrl_site220]", "gcPBM binding intensity (ln)": "9.38 ± 0.4"},
      {"sequence": "TTTTGACATTAACTTAAAAAATAAATAATTATAAAA [XGTACX_negctrl_site552]", "gcPBM binding intensity (ln)": "7.78 ± 0.071"},
      {"sequence": "ACATATTATAACATATGTACATATATATATATATAA [XGTACX_site5567]", "gcPBM binding intensity (ln)": "7.98 ± 0.41"},
      {"sequence": "AAATATAAGTTTTATTGTACATTATATAGCATATTT [XGTACX_site6618]", "gcPBM binding intensity (ln)": "7.49 ± 0.41"},
      {"sequence": "TATCATATAAAACATGCACACATATGTACTCTTATA [CACACA_site9249]", "gcPBM binding intensity (ln)": "8.35 ± 0.55"},
      {"sequence": "CGTTCTATTTAGATATGTACTTAAATATATGATCAT [XGTACX_site2936]", "gcPBM binding intensity (ln)": "7.61 ± 0.39"},
      {"sequence": "AAAAAATAAGATTGTACACACATAAATTCTTTGTCA [CACACA_site2089]", "gcPBM binding intensity (ln)": "7.66 ± 0.47"},
      {"sequence": "AATGTGTTCATATATGCACACGCATATATATTATTG [CACACA_site9274]", "gcPBM binding intensity (ln)": "9.07 ± 0.2"},
      {"sequence": "TATATAAATGGACACACACACACCTTATAATTATTA [CACACA_site6093]", "gcPBM binding intensity (ln)": "7.95 ± 0.35"},
      {"sequence": "TTTATAAATTGACACACACACATGTGAACATAAAAA [CACACA_site6978]", "gcPBM binding intensity (ln)": "7.91 ± 0.55"},
      {"sequence": "CCTAATTTTTTTAGTTGTACTTTTTTTTTTTTTTAT [XGTACX_site7948]", "gcPBM binding intensity (ln)": "7.79 ± 0.5"},
      {"sequence": "GCCTATATGTTTAGTTGTACTCCTAATATTATTTGT [XGTACX_site6060]", "gcPBM binding intensity (ln)": "8.1 ± 0.53"},
      {"sequence": "CAAATTATTTCGAGGTGTACTTTTTTATATTATATT [XGTACX_site8309]", "gcPBM binding intensity (ln)": "7.82 ± 0.55"},
      {"sequence": "ATACGTATATAATATACATGCATATATAGCACATAC [TGCATGCA_site376]", "gcPBM binding intensity (ln)": "9.11 ± 0.66"},
      {"sequence": "ATAAAAAAAAAAAAAAATGAAGCATCACCGTGTAAT [XGTACX_negctrl_site288]", "gcPBM binding intensity (ln)": "7.65 ± 0.65"}
    ]}
  ]
}
